# In the BET-seq Pho4 binding data (Le et al. 2018):
# This is one part of the list. Values were computed here from the reads of four pooled replicates and scatter widely.
# Target: T1, Pho4 (S. cerevisiae) (UniProt P07270)
# T1 sequence: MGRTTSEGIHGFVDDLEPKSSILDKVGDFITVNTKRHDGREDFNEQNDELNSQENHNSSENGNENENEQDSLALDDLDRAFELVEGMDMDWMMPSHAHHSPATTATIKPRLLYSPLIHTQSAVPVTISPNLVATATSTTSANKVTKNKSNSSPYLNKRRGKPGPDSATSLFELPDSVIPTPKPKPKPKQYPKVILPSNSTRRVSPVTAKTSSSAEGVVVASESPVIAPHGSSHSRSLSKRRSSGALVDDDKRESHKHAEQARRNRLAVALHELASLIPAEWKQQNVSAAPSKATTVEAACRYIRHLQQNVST
# Experiment: relative binding free energy (BET-seq); higher = weaker binding
# Settings: reference: library average
row,Sequence,relative binding free energy
1,TTAATCACGTGCTGTA,0.07 kcal/mol
2,TTGTCCACGTGGTGAG,0 kcal/mol
3,AAATGCACGTGGAGTC,0.01 kcal/mol
4,CCGGGCACGTGCGTGT,-0.24 kcal/mol
5,AGTTTCACGTGCTTAT,0.09 kcal/mol
6,TTAATCACGTGCTGTT,-0.05 kcal/mol
7,GTAGTCACGTGTCTGG,0.28 kcal/mol
8,TGGGTCACGTGGATGG,0.15 kcal/mol
9,TCTAACACGTGTTTGT,-0.1 kcal/mol
10,TTTCTCACGTGTATTG,0.25 kcal/mol
11,GATTCCACGTGTGGGA,0.23 kcal/mol
12,TTGAGCACGTGTTAAA,0.01 kcal/mol
13,AACGTCACGTGGGTGA,-0.01 kcal/mol
14,TAGTGCACGTGGGAGT,-0.15 kcal/mol
15,AAAGGCACGTGATTGG,0.01 kcal/mol
16,TGCGTCACGTGCGGTG,0 kcal/mol
17,TGCGGCACGTGTTACT,-0.07 kcal/mol
18,CGGTCCACGTGGGTGT,-0.18 kcal/mol
19,TAAGTCACGTGTACGG,0.13 kcal/mol
20,CTGATCACGTGTGGCT,0.17 kcal/mol
21,AGTTACACGTGTGAAG,0.06 kcal/mol
22,TAATGCACGTGTCTAT,0.07 kcal/mol
23,GTCCTCACGTGTTGTG,0.27 kcal/mol
24,TTAGCCACGTGAAGTT,0.28 kcal/mol
25,AAGTTCACGTGGGTCT,0.15 kcal/mol

row,Sequence,relative binding free energy
1,GGGTCCACGTGATGTG,0.13 kcal/mol
2,GAGTGCACGTGGAGTG,0.04 kcal/mol
3,TTTTGCACGTGCGAGC,0.01 kcal/mol
4,GGTTTCACGTGCAGGT,0.19 kcal/mol
5,TGAGTCACGTGTAATA,0.22 kcal/mol
6,AGCGTCACGTGTATGG,0.15 kcal/mol
7,GACTTCACGTGTTGGG,0.32 kcal/mol
8,AAGTCCACGTGTATGG,0.1 kcal/mol
9,TTCTTCACGTGGAGAT,0.24 kcal/mol
10,CAGTTCACGTGTGTCG,0.33 kcal/mol
11,GGTATCACGTGAGGTC,0.32 kcal/mol
12,TGTGGCACGTGGAAAC,-0.01 kcal/mol
13,GGGGGCACGTGTATTA,-0.01 kcal/mol
14,ATGGTCACGTGTATTC,0.04 kcal/mol
15,GGTGGCACGTGTGGGT,0.03 kcal/mol
16,GTAGGCACGTGCATGT,-0.14 kcal/mol
17,GATTACACGTGTTGTT,0.28 kcal/mol
18,TGAGTCACGTGGAGCT,0.15 kcal/mol
19,AGTGACACGTGGCGAG,0.04 kcal/mol
20,TTCCTCACGTGGTTGT,0.1 kcal/mol
21,AGTGTCACGTGGCAAT,0.06 kcal/mol
22,AGATACACGTGGGGGT,-0.23 kcal/mol
23,TGGAACACGTGGTAGT,-0.01 kcal/mol
24,CTAGTCACGTGTGTCT,0.13 kcal/mol
25,GGTTTCACGTGGGTAG,0.21 kcal/mol

row,Sequence,relative binding free energy
1,TGTAACACGTGTGGAC,0.06 kcal/mol
2,TGATACACGTGTTAGT,0.08 kcal/mol
3,GGACTCACGTGTGTGT,0.24 kcal/mol
4,GGAGTCACGTGAGTTT,0.42 kcal/mol
5,AAAGTCACGTGTAATG,0.15 kcal/mol
6,GATGGCACGTGAGTGT,0.19 kcal/mol
7,TCTGGCACGTGGGATA,-0.12 kcal/mol
8,AATATCACGTGTTGGA,0.08 kcal/mol
9,GCCGTCACGTGGGCGG,-0.02 kcal/mol
10,GGTGTCACGTGCGCTT,-0.02 kcal/mol
11,AACATCACGTGTTGGT,0.14 kcal/mol
12,ATGTACACGTGTATAG,0 kcal/mol
13,TGATACACGTGTTTAA,-0.06 kcal/mol
14,TTATTCACGTGATAAA,0.29 kcal/mol
15,TGCTACACGTGGGGAT,-0.13 kcal/mol
16,TGTTGCACGTGGTTTG,0.01 kcal/mol
17,GTGGCCACGTGGTAGA,-0.14 kcal/mol
18,TTTCTCACGTGGAGGG,0.14 kcal/mol
19,TGGTACACGTGCCGGG,-0.02 kcal/mol
20,GGTGTCACGTGCTGGC,0.22 kcal/mol
21,GTAGACACGTGTAGTG,0.05 kcal/mol
22,ACGGGCACGTGAGGGG,0.06 kcal/mol
23,TGTGTCACGTGCGGTG,0.11 kcal/mol
24,TCCTGCACGTGGTGTG,-0.17 kcal/mol
25,AAATTCACGTGGGAGT,0.32 kcal/mol

row,Sequence,relative binding free energy
1,GGCGGCACGTGGGGAG,-0.25 kcal/mol
2,CGCGTCACGTGGTGCG,-0.07 kcal/mol
3,AGAGGCACGTGGCTGA,-0.1 kcal/mol
4,GATCTCACGTGTGAGT,0.38 kcal/mol
5,GAGGACACGTGATGGC,0.12 kcal/mol
6,AGGGCCACGTGATGGT,-0.04 kcal/mol
7,GGGTTCACGTGGTGTA,0.32 kcal/mol
8,TTGTTCACGTGTCAGA,0.3 kcal/mol
9,ATTGACACGTGTATAA,0.07 kcal/mol
10,TGTAGCACGTGTATTA,-0.01 kcal/mol
11,ATAGTCACGTGTAGAT,0.12 kcal/mol
12,TTGGGCACGTGAGCAG,0.03 kcal/mol
13,ATTGGCACGTGCGTAG,-0.08 kcal/mol
14,AGAGGCACGTGTAAGT,-0.03 kcal/mol
15,GGAGGCACGTGTCTGG,-0.15 kcal/mol
16,GTTTCCACGTGCTGGG,0.07 kcal/mol
17,ATGCTCACGTGGAGGG,0.12 kcal/mol
18,CTTGTCACGTGAATAG,0.28 kcal/mol
19,GAGTGCACGTGTGTTA,0.01 kcal/mol
20,CGCCGCACGTGTGGTG,0 kcal/mol
21,TGTTGCACGTGTGCAT,-0.02 kcal/mol
22,GTGAACACGTGTCTTG,0.09 kcal/mol
23,GAGGGCACGTGTTCGT,-0.02 kcal/mol
24,TGAAACACGTGGTTGT,0.03 kcal/mol
25,TGTCGCACGTGGATGG,0 kcal/mol

row,Sequence,relative binding free energy
1,CATTTCACGTGAGGTG,0.29 kcal/mol
2,GTCGGCACGTGTGGAA,-0.1 kcal/mol
3,AATAACACGTGGGCTT,-0.03 kcal/mol
4,TTGAGCACGTGTACGG,0.02 kcal/mol
5,AGTCACACGTGTGGAG,0.07 kcal/mol
6,TTCATCACGTGTTAGT,0.12 kcal/mol
7,GAGGGCACGTGACAGT,0.06 kcal/mol
8,AATAGCACGTGTTTGG,-0.19 kcal/mol
9,GATTGCACGTGGCATT,0.04 kcal/mol
10,AGTACCACGTGGTTTG,-0.02 kcal/mol
11,TATCGCACGTGCGGTT,-0.15 kcal/mol
12,CTTGGCACGTGTTATG,-0.05 kcal/mol
13,AGAGGCACGTGTAGAT,0.14 kcal/mol
14,CATTACACGTGGAGGG,-0.03 kcal/mol
15,TTGCGCACGTGTGCAG,-0.18 kcal/mol
16,TAGTCCACGTGGGATG,0.07 kcal/mol
17,TGCTACACGTGTTGGT,0 kcal/mol
18,CTAGACACGTGGAGGG,-0.03 kcal/mol
19,TATCGCACGTGGTTAT,-0.14 kcal/mol
20,GGGGGCACGTGTTATG,-0.01 kcal/mol
21,ATGTTCACGTGTGAAT,0.32 kcal/mol
22,CGTGTCACGTGGGGAT,-0.02 kcal/mol
23,TGGCGCACGTGGGTTA,-0.15 kcal/mol
24,AAAGTCACGTGTGGAA,0.16 kcal/mol
25,GAGGTCACGTGAAAGT,0.47 kcal/mol

row,Sequence,relative binding free energy
1,TGGGACACGTGTTGGC,0.07 kcal/mol
2,TTGTCCACGTGGTGTA,-0.02 kcal/mol
3,ATGCACACGTGTATTT,0.12 kcal/mol
4,AAAGACACGTGGAAGG,0.2 kcal/mol
5,GGGTTCACGTGATCAG,0.27 kcal/mol
6,TGGGGCACGTGGTAGT,-0.08 kcal/mol
7,ATGGTCACGTGTCATA,0.26 kcal/mol
8,TTTCGCACGTGTTAGA,0.07 kcal/mol
9,CTTTTCACGTGGGCGA,0.27 kcal/mol
10,ATGGTCACGTGATTGT,0.17 kcal/mol
11,CTGAGCACGTGTGGAG,-0.01 kcal/mol
12,TTAGACACGTGGTCTG,-0.21 kcal/mol
13,GGTATCACGTGGTAGT,0.17 kcal/mol
14,GTGTTCACGTGGGGCG,0.13 kcal/mol
15,TTCCGCACGTGGGCGG,-0.09 kcal/mol
16,TGAGCCACGTGTGGAT,-0.03 kcal/mol
17,CGGGTCACGTGAAAGT,0.43 kcal/mol
18,AGGGCCACGTGTTGGT,-0.12 kcal/mol
19,TTGAGCACGTGACTTG,0.06 kcal/mol
20,GGAACCACGTGGTGTT,0.03 kcal/mol
21,ATGTGCACGTGTCGGG,0.09 kcal/mol
